Test results: patent US20250381289A1 (Genmab, published 2025)

Key:
[1] = biological target: T1, cMET on EGFR and cMET co-expressed tumor cell lines (UniProt P08581); assay: flow cytometry, EBC-1 cells (co-express EGFR and cMET; both arms contribute)
T1 construct: whole, on cells

[2] = biological target: T2, EGFR on EGFR and cMET co-expressed tumor cell lines (UniProt P00533); assay: as above
T2 construct: whole, on cells

T1 sequence (P08581 25-1390 limits assumed): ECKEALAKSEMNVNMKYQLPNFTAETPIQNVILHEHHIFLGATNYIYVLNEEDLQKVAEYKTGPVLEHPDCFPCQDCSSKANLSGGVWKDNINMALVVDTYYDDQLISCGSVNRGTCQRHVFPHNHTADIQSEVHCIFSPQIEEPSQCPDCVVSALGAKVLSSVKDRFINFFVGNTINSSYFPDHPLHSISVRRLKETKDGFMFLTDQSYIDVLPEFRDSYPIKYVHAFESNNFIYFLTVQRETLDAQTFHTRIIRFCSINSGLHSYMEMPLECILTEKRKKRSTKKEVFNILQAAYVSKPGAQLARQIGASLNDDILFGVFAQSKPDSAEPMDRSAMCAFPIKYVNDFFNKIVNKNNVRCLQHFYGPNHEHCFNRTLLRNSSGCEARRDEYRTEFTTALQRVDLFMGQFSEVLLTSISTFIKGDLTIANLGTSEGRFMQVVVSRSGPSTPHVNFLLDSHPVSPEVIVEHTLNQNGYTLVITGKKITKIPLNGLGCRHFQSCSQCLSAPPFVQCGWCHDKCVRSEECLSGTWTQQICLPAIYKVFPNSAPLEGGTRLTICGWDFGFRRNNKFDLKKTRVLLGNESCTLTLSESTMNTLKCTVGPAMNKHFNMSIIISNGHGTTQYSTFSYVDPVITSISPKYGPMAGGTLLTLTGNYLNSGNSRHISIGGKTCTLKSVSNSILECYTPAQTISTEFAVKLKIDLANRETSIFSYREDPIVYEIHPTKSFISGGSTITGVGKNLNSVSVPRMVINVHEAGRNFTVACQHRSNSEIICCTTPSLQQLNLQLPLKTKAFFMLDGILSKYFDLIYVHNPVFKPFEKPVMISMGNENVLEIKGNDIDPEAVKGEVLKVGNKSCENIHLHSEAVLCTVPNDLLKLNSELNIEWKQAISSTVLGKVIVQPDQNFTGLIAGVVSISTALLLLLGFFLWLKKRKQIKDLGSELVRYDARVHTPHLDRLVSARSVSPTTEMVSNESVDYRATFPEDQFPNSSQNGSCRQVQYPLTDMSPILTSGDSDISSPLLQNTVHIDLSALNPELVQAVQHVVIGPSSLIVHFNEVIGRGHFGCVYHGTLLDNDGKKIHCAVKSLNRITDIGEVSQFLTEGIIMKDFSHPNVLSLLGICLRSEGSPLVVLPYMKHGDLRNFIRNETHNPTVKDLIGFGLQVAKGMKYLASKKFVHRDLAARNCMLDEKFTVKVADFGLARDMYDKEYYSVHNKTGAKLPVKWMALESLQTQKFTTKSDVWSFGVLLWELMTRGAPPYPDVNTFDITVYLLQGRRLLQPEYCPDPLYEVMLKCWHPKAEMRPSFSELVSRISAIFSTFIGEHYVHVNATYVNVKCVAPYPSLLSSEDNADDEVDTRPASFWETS

B1: Bsab 68 WT (bispecific antibody, human IgG1)
chain 1: QVQLVESGGGVVQPGRSLRLSCAASGFTFSTYGMHWVREAPGKDLEWVAVIWDDGSYKYYGDSVKGRFTISRDNSKNTLYLQMNSLRAEDTAVYYCARDGITMVRGVMKDYFDYWGQGTLVTVSSGGGGSGGGGSGGGGSGGGGSAIQLTQSPSSLSASVGDRVTITCRASQDISSALVWYQKKPGKAPKLLIYDASSLESGVPSRFSGSESGTDFTLTISSLQPEDFATYYCQQFNSYPLTFGKGTKVEIKGGGGS[omitted - human IgG1 Fc with changes]
chain 2: QVQLVQSGAEVKKPGASVKVSCKASGYIFTAYTMHWVRQAPGQKLEWMGWIKPNNGLANYAQKFQGRVTMTRDTSISTAYMELSRLRSDDTAVYYCARSEITTEFDYWGQGTLVTVSSGGGGSGGGGSGGGGSGGGGSDIVMTQSPDSLAVSLGERATINCKSSESVDSYANSFLHWYQQKPGQPPKLLIYRASTRESGVPDRFSGSGSGTDFTLTISSLQAEDVAVYYCQQSKEDPLTFGDGTKVEIKGGGGS[omitted - human IgG1 Fc with S354C T366S L368A Y407V (EU numbers)]
notes: also called Basb 68 WT
B1 was tested, and the “EC50 (read off the curve)” value [1] was about 4 nM and the “EC50 (read off the curve)” value [2] was about 4 nM.
